Experimental data as given in PubChem BioAssay AID588579 (National Center for Advancing Translational Sciences (NCATS), 2011).
“And” between values parts separate entries of the source, which are not always exact repeats. Identical values can stand only once. The whole screen tested about 400,000 compounds, of which about 2,200 (0.55%) were called active. Inconclusive means that the source gave no clear call. Such entries were picked first, then a sample of the others. The call rests on the fitted dose curve; in most records, active means well fitted inhibition curve with a large enough effect; inconclusive means small, poorly fitted or top-dose-only effect, or another doubt; inactive means no such curve, though single readings can be large or run the other way. Where the call is inconclusive, the potency comes from a doubtful curve fit.

These molecules were tested against DNA polymerase kappa (Homo sapiens) (UniProt Q9UBT6) (assay: qHTS for Inhibitors of Polymerase Kappa). Conditions: purified Pol kappa, fluorescent DNA synthesis assay, 10 min; series mostly up to 107 µM.
Summary of the method: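 Enzyme at 10 nM met test compounds for 15 min at room temperature. Substrate addition (50 nM final) began the reaction, which was monitored by fluorescence at 0 and 10 min.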
Potency means the concentration at half of the fitted maximal effect; tags describe the fitted curve by direction and shape.

UniProt Q9UBT6, sequence (Q9UBT6 whole entry, looked up): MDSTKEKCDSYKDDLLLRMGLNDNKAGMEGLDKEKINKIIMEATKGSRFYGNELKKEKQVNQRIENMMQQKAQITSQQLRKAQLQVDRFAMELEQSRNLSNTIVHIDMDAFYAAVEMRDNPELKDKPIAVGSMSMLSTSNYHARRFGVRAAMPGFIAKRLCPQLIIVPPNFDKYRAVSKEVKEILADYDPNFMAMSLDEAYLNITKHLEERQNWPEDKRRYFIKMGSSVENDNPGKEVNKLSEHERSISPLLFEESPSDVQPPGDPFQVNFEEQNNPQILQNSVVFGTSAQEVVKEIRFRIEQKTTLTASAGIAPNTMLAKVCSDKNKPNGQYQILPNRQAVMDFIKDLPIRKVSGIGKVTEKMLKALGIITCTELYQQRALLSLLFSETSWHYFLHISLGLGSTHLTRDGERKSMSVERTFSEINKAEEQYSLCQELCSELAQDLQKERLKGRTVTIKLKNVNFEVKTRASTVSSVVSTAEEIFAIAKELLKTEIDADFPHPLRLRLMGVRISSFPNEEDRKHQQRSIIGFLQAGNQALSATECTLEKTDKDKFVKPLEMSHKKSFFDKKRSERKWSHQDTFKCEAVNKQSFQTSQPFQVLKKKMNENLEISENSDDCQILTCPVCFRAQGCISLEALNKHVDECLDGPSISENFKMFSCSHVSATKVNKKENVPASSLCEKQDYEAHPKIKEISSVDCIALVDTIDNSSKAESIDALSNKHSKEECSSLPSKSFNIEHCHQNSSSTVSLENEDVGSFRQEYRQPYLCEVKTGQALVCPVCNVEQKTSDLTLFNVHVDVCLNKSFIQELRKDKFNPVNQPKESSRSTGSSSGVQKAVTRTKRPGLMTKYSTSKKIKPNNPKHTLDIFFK

With Cc1ccc(/C=C/c2onc(C)c2S(=O)(=O)N2CCC(C(=O)N(CCC(C)C)Cc3ccco3)CC2)cc1 as the molecule, how does the Potency read?
Its Potency is “inactive”.

Which Potency does the source give for CN(Cc1ccco1)c1ccnc(-c2ccoc2)n1 here?
Its Potency is inconclusive: 39.8 µM [inhibitor, single point].

For C/C(=N\NC(=O)c1cc(O)ccc1O)c1cccc(NC(=O)c2cccc(Cl)c2)c1, which Potency is on record?
The Potency was active: 79.4 µM.

How did the Potency turn out when CC1SC(=S)N(c2ccc(N(C)C)cc2)C1=O (stereo unspecified) was run?
Its Potency is “inactive”.

With COc1ccc(C(=O)COC(=O)/C=C/c2ccco2)cc1F as the molecule, how does the Potency read?
Its Potency is inconclusive: 89.1 µM [inhibitor, partial curve, poor fit].

With CN(C)C(=O)c1ccc(/C=C/c2ccnc3ccccc23)cc1 as the molecule, how does the Potency read?
Its Potency is “inactive”.

Cc1cc(C(=O)CSc2nc3ccc(Cl)cc3[nH]2)c(C)n1Cc1ccco1 was tested. Which Potency did it give?
Its Potency is inconclusive: 56.2 µM [inhibitor, partial curve, poor fit].

Which Potency does the source give for CCN(c1ccccc1)S(=O)(=O)c1cc(C(=O)OC(C)C(=O)Nc2ccc3c(c2)OCCO3)ccc1C (stereo unspecified) here?
The Potency was inconclusive: 79.4 µM [inhibitor, single point].

Which Potency does the source give for COc1ccc(/C=N/Nc2nc(N3CCCC3)nc(N3CCCC3)n2)cc1 here?
Its Potency is inconclusive: 100 µM [inhibitor, single point].

CN1CCN(C2Cc3ccccc3Sc3ccc(Cl)cc32)CC1 (stereo unspecified) was tested. Which Potency did it give?
Its Potency is inconclusive: 42.3 µM [inhibitor, partial curve, poor fit].

For CCN1CCN(c2cc(C)c3cc(NC(=O)c4ccc(OC)c(OC)c4)ccc3n2)CC1, which Potency is on record?
Its Potency is inconclusive: 56.2 µM [inhibitor, partial curve, poor fit] and inconclusive: 89.1 µM [inhibitor, single point].

O=C(Nc1ccc(C2=NCCN2)cc1)c1ccc(C(=O)Nc2ccc(C3=NCCN3)cc2)c([N+](=O)[O-])c1 was tested. Which Potency did it give?
Its Potency is active: 44.7 µM.

Which Potency does the source give for Cc1cc(C)c(NC(=O)Cn2c(=O)n(Cc3ccc(C(=O)NCc4ccco4)cc3)c(=O)c3sccc32)c(C)c1 here?
Its Potency is inconclusive: 89.1 µM [inhibitor, single point].

Which Potency does the source give for CN1C(=O)/C(=C/c2ccco2)SC1=Nc1cccc(C(=O)O)c1 here?
The Potency was active: 20 µM.

How did the Potency turn out when O=C(Nc1ccc(Cl)cc1)N1CCC(c2nc(-c3ccccc3Cl)no2)CC1 was run?
The Potency was inconclusive: 100 µM [inhibitor, single point].

For CCCC1=NN2C(=N)/C(=C\c3ccc(OCCOc4ccc(NC(C)=O)cc4)c(OC)c3)C(=O)N=C2S1, which Potency is on record?
The Potency was “inactive”.

How did the Potency turn out when COc1cc2nc(N3CCNCC3)nc(N)c2cc1OC was run?
The Potency was inconclusive: 79.4 µM [inhibitor, partial curve, poor fit].

With CC(C)(C)c1ccc2c(c1)OC(C(=O)N/N=C\c1ccccn1)CO2 (stereo unspecified) as the molecule, how does the Potency read?
Its Potency is “inactive”.

With COc1ccc(OC(C)C(=O)NCc2nc(-c3ccc(Cl)cc3)no2)cc1 (stereo unspecified) as the molecule, how does the Potency read?
The Potency was inconclusive: 89.1 µM [inhibitor, single point].

Which Potency does the source give for O=C(NCCOC(=O)Nc1cccc2ccccc12)OCc1ccccc1 here?
The Potency was “inactive”.

With COc1ccc(Cn2c(=O)[nH]c3cc(C(=O)N4CCN(c5ccc(C(C)=O)cc5)CC4)ccc3c2=O)cc1 as the molecule, how does the Potency read?
Its Potency is “inactive”.

Which Potency does the source give for COc1ccc(C(=O)c2cn(CC(=O)Nc3ccc4c(c3)OCO4)c3ccc(OC)cc3c2=O)cc1 here?
The Potency was “inactive”.

How did the Potency turn out when O=C(O)c1c(C(=O)O)c(-c2ccc(Br)cc2)n2c1CSC2 was run?
The Potency was “inactive”.

COc1ccc(CCC(=O)OCC(=O)Nc2ccc(C)c(S(=O)(=O)N(C)C)c2)cc1 was tested. Which Potency did it give?
The Potency was inconclusive: 89.1 µM [inhibitor, partial curve, poor fit].

How did the Potency turn out when O=C1CC(c2ccc3c(c2)OCO3)c2cc(O)ccc2O1 (stereo unspecified) was run?
Its Potency is active: 31.6 µM.

With COc1ccccc1C1CC(=O)Oc2c(C(C)C)ccc(C)c21 (stereo unspecified) as the molecule, how does the Potency read?
Its Potency is inconclusive: 56.2 µM [inhibitor, single point].

CC(/C=C/c1ccco1)=N/NC(=O)Cc1cccs1 was tested. Which Potency did it give?
Its Potency is inconclusive: 79.4 µM [inhibitor, single point].

Which Potency does the source give for Cc1ccc(N(C(=O)Cc2cccs2)C2C=CS(=O)(=O)C2)cc1Cl (stereo unspecified) here?
Its Potency is inconclusive: 89.1 µM [inhibitor, single point].

For C=C1C2CC[C@@]3(C)C(c4ccoc4)OC(=O)C[C@@]13OC1CC(OC(C)=O)C(C)(C)C(CC(=O)OC)[C@@]12C (stereo partly specified), which Potency is on record?
The Potency was inconclusive: 28.2 µM [inhibitor, partial curve, poor fit].

How did the Potency turn out when CCOC(=O)c1cc(-c2ccc(/C=C3/C(=O)N(c4ccc(C(=O)O)cc4)N=C3C)o2)ccc1Cl was run?
The Potency was inconclusive: 100 µM [inhibitor, partial curve, poor fit].

How did the Potency turn out when O=C(/C=C/c1ccc(O)cc1)c1ccccc1O was run?
Its Potency is inconclusive: 7.94 µM [inhibitor, partial curve].

Which Potency does the source give for C=CCn1c(SCc2ccc3c(c2)OCO3)nc2scc(-c3ccco3)c2c1=O here?
Its Potency is inconclusive: 89.1 µM [inhibitor, partial curve, poor fit].

For O=C1C2C3C=CC(CC3)C2C(=O)N1c1nccs1 (stereo unspecified), which Potency is on record?
Its Potency is active: 17.8 µM.

How did the Potency turn out when O=C(CCCn1c(=S)[nH]c2cc3c(cc2c1=O)OCO3)NCc1cccc(Cl)c1 was run?
Its Potency is inconclusive: 56.2 µM [inhibitor, partial curve, poor fit].

With CCCCCCC/C=C\CCCCCCCCC(=O)O as the molecule, how does the Potency read?
The Potency was inconclusive: 37.7 µM [inhibitor, single point].

O=C(Oc1cccc([N+](=O)[O-])c1)c1ccc2c(=O)n3c(nc2c1)CCC3 was tested. Which Potency did it give?
Its Potency is inconclusive: 89.1 µM [inhibitor, single point].

With COc1cccc(Oc2ccc(C(F)(F)F)cc2N)c1 as the molecule, how does the Potency read?
Its Potency is inconclusive: 89.1 µM [inhibitor, partial curve, poor fit].

Which Potency does the source give for O=C(Nc1nc(-c2cccs2)cs1)c1ccc([N+](=O)[O-])o1 here?
The Potency was “inactive”.

Which Potency does the source give for Cc1cc(=O)n2[nH]c(-c3sccc3-n3c(C)ccc3C)cc2n1 here?
Its Potency is inconclusive: 56.2 µM [inhibitor, partial curve, poor fit].

For CC1=C(C(=O)OCCC(C)C)C(c2ccc3c(c2)OCO3)NC(=O)N1 (stereo unspecified), which Potency is on record?
The Potency was “inactive”.

With O=c1oc2ccccc2c2oc3cc(O)c(O)cc3c12 as the molecule, how does the Potency read?
Its Potency is active: 5.01 µM.

For COc1cccc(C2CC(=O)Nc3cc4c(cc32)OCCO4)c1OC (stereo unspecified), which Potency is on record?
The Potency was “inactive”.

CCC(CN(C)C)Oc1cc(NCc2ccccc2)c2ncn(C(C)C)c2c1 (stereo unspecified) was tested. Which Potency did it give?
Its Potency is “inactive”.

How did the Potency turn out when CCN(CC(=O)NCc1cccs1)C(=O)c1ccc(NS(=O)(=O)c2ccc(C(C)=O)cc2)cc1 was run?
Its Potency is inconclusive: 89.1 µM [inhibitor, partial curve, poor fit].

For O=C(COc1ncnc2sccc12)N1CCN(C(=O)c2ccco2)CC1, which Potency is on record?
The Potency was inconclusive: 100 µM [inhibitor, single point].

Which Potency does the source give for COC(=O)C1=C(c2ccccc2)c2ccccc2S(=O)(=O)N1CC(=O)Nc1cccc(C(C)=O)c1 here?
The Potency was inconclusive: 89.1 µM [inhibitor, partial curve, poor fit].

How did the Potency turn out when COc1cccc(-c2cncnc2N(C)Cc2ccco2)c1 was run?
Its Potency is inconclusive: 22.4 µM [inhibitor, partial curve, poor fit].

For Cc1ccccc1-c1n[nH]c(=S)n1/N=C/C=C/c1ccco1, which Potency is on record?
The Potency was active: 17.8 µM.

How did the Potency turn out when Cc1ccc(NC(=O)CCn2c(=O)c3cccn3c3ccccc32)c(Cl)c1 was run?
The Potency was “inactive”.

For O=S(=O)(c1ccc(Br)cc1)c1nc(-c2ccco2)oc1SCc1ccccc1Cl, which Potency is on record?
The Potency was inconclusive: 79.4 µM [inhibitor, partial curve, poor fit].

With CCn1cc(C(=O)N2CCN(c3cccc(C)c3C)CC2)c(=O)c2ccc(C)nc21 as the molecule, how does the Potency read?
Its Potency is inconclusive: 89.1 µM [inhibitor, single point].

With O=C(NCc1ccco1)c1cc2ccccc2c(=O)o1 as the molecule, how does the Potency read?
The Potency was inconclusive: 89.1 µM [inhibitor, single point].

For COc1cccc(CNC(=O)CCn2c(=O)c3cccn3c3ccc(F)cc32)c1OC, which Potency is on record?
Its Potency is “inactive”.

Which Potency does the source give for CC(=O)C1=C(c2ccc(Br)cc2)C(=O)c2ccccc2C1=O here?
The Potency was inconclusive: 79.4 µM [inhibitor, partial curve, poor fit].

With COc1ccc(C(=O)Nc2c(N)nc(SCC(=O)Nc3ccc(NC(C)=O)cc3)[nH]c2=O)cc1OC as the molecule, how does the Potency read?
The Potency was inconclusive: 100 µM [inhibitor, single point].

Which Potency does the source give for Cc1c(Cl)cccc1NS(=O)(=O)c1ccc2[nH]cc(C(=O)NC3CCCC3)c(=O)c2c1 here?
Its Potency is inconclusive: 79.4 µM [inhibitor, partial curve, poor fit].

COc1ccc(-c2nc3c(c(SCC(=O)Nc4ccc(C(=O)O)cc4)n2)Cc2ccccc2O3)cc1 was tested. Which Potency did it give?
The Potency was inconclusive: 89.1 µM [inhibitor, single point].

With CC(=O)Nc1sc2c(c1C#N)CCN(Cc1ccccc1)C2 as the molecule, how does the Potency read?
The Potency was “inactive”.

For O=C(Nc1ccc(Cl)c(Cl)c1)c1ccc(Cl)c(Cl)c1, which Potency is on record?
The Potency was “inactive”.

Which Potency does the source give for COc1ccc(C2=Nn3c(nnc3-c3ccccc3Cl)SC2)cc1OC1CCCC1 here?
The Potency was inconclusive: 44.7 µM [inhibitor, partial curve].

With O=C(O)C1CCCCC1C(=O)Nc1cccc(Br)c1 (stereo unspecified) as the molecule, how does the Potency read?
Its Potency is inconclusive: 56.2 µM [inhibitor, partial curve, poor fit].

For COc1ccc(C(=O)N/N=C/c2cc(Br)ccc2O)cc1OC, which Potency is on record?
The Potency was inconclusive: 89.1 µM [inhibitor, partial curve, poor fit].

Which Potency does the source give for Cc1ccccc1NC(=O)CN1C(=O)N/C(=C\c2cccn2-c2cccc(C(=O)O)c2)C1=O here?
The Potency was active: 14.1 µM.

For C#CCN1C(=O)S/C(=C\c2ccc(-c3ccc(C(=O)O)cc3C)o2)C1=O, which Potency is on record?
Its Potency is active: 17.8 µM.

For C/C(=C\C(=O)c1ccc(C)cc1)Nc1cccc(O)c1, which Potency is on record?
Its Potency is inconclusive: 89.1 µM [inhibitor, single point].

Which Potency does the source give for Cc1cc(C(F)(F)F)n2[nH]c(=O)c(N=Nc3ccccc3)c2n1 here?
Its Potency is inconclusive: 56.2 µM [inhibitor, partial curve, poor fit].
